Measurements published in the BET-seq Pho4 binding data (Le et al. 2018).
Some of the results follow. Values were computed here from the reads of four pooled replicates and scatter widely.

Each sequence was assayed against T1, Pho4 (S. cerevisiae) (UniProt P07270) (assay: relative binding free energy (BET-seq); higher = weaker binding). Details: reference: library average.
T1 sequence: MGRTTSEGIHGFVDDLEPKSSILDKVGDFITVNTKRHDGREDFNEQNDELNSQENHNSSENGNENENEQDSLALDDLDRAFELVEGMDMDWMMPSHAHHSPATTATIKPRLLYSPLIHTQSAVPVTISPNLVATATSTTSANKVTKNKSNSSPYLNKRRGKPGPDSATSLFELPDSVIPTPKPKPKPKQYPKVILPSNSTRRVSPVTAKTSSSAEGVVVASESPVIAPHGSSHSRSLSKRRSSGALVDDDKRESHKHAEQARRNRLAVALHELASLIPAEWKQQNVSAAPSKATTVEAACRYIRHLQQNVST

Row | Sequence | relative binding free energy [kcal/mol]
1 | TCCTTCACGTGTGTTG | 0.21
2 | CATGGCACGTGTGTAT | -0.14
3 | GAAAGCACGTGTAGGT | -0.21
4 | TTGTACACGTGGTATG | -0.05
5 | GGGACCACGTGTTTGG | 0.09
6 | GATTGCACGTGTGATA | 0.18
7 | GAATTCACGTGTGTTA | 0.45
8 | GGGGTCACGTGAGACG | 0.24
9 | ATAGGCACGTGGCGTA | -0.28
10 | AGTGTCACGTGTGGAT | 0.08
11 | TCCTTCACGTGGGTAG | 0.19
12 | TCCTGCACGTGGTGGG | -0.13
13 | AGGTGCACGTGCTGTT | -0.09
14 | ATAGGCACGTGGCGGC | -0.21
15 | TGGTGCACGTGTTCAG | -0.09
16 | TTAGGCACGTGGAAGG | -0.02
17 | CTTAGCACGTGTGTGT | -0.05
18 | CTGAGCACGTGTTGAT | 0.02
19 | TTTCTCACGTGAAGGT | 0.33
20 | GTTAGCACGTGATTTA | 0.04
21 | GACTGCACGTGGGGTT | -0.13

Row | Sequence | relative binding free energy [kcal/mol]
22 | ATGATCACGTGGTCTT | 0.15
23 | GAAAGCACGTGGGTGT | -0.1
24 | AGGTACACGTGGGTGG | -0.08
25 | TCGAGCACGTGGTTTG | -0.21
26 | ATATGCACGTGAGGTT | 0.11
27 | TGTGACACGTGGGTTG | -0.08
28 | TAATGCACGTGAGTTG | 0.13
29 | AATTACACGTGTGTTA | -0.03
30 | GGGTACACGTGTTGGT | 0.18
31 | TTTATCACGTGACGAT | 0.36
32 | GGATACACGTGCGTGT | -0.01
33 | TGAAACACGTGTGTAG | -0.02
34 | TTAGTCACGTGGGCGG | 0
35 | TGGGACACGTGTCTTT | 0.21
36 | TTGGACACGTGTCGCG | 0.07
37 | TCTGTCACGTGTTAAA | 0.18
38 | ATGTCCACGTGTTAAT | 0.06
39 | ATAAGCACGTGTGCTA | 0.02
40 | CGTGCCACGTGAGGGT | 0.04
41 | CGTGTCACGTGGACGG | 0.17
42 | AAAGTCACGTGGTGGT | 0.03

Row | Sequence | relative binding free energy [kcal/mol]
43 | AGTTGCACGTGAGGGG | 0.27
44 | TGGGACACGTGGTACG | -0.11
45 | CTTTTCACGTGGGATC | 0.19
46 | ATTAGCACGTGTGCGA | -0.1
47 | GTCGTCACGTGGTATT | 0.02
48 | TAGTTCACGTGATGAA | 0.19
49 | TCGTTCACGTGTGGAA | 0.26
50 | TTTGTCACGTGACGCG | 0.23
51 | GGGACCACGTGGGGAA | -0.06
52 | GAGAACACGTGTGGAG | 0.14
53 | GTTAGCACGTGATGGA | 0.09
54 | GTTTGCACGTGGCAGG | 0.12
55 | GGTCCCACGTGGTGTG | -0.12
56 | CAGGACACGTGCGTGG | 0.03
57 | TTGGTCACGTGCAGTT | 0.11
58 | TGTATCACGTGGGTCT | 0.01
59 | AGTATCACGTGAGTTG | 0.36
60 | TTGTGCACGTGAAAGG | 0.23
61 | AAGTTCACGTGGCTTT | 0.1
62 | GGTAACACGTGGTTAA | -0.09
63 | GACGTCACGTGTAGTT | 0.43
